Data published in the antibiotic and cytotoxicity screens of Wong et al. (2023).
Some of the results follow.

Each compound was assayed on S. aureus RN4220 (assay: growth inhibition call (relative growth <= 0.2)). Details: 50 µM.

Growth inhibition call, inactive:
Cc1noc(C)c1S(=O)(=O)N(C)C[C@H]1OCCCC[C@@H](C)Oc2ccc(NS(C)(=O)=O)cc2C(=O)N([C@@H](C)CO)C[C@@H]1C, C[C@@H]1CN([C@H](C)CO)C(=O)c2c(c3ccccc3n2C)-c2ccccc2CO[C@@H]1CN(C)C(=O)[C@H](C)c1ccccc1, C[C@@H]1CN([C@@H](C)CO)C(=O)Cc2cc(NC(=O)CCCCCC(=O)Nc3ccccc3N)ccc2O[C@@H]1CN(C)C(=O)Nc1ccccc1, CCOC(=O)CC1=NC(=O)CS1, C[C@H](CO)N1C[C@H](C)[C@H](CN(C)Cc2ccncc2)Oc2c(NC(=O)Nc3ccc(C(F)(F)F)cc3)cccc2C1=O, C[C@H](CO)N1C[C@H](C)[C@@H](CN(C)C(=O)Nc2ccc(C(F)(F)F)cc2)Oc2ccc(NC(=O)Nc3ccc4c(c3)OCO4)cc2CC1=O, COc1ccc(NC(=O)Nc2ccc3c(c2)C(=O)N([C@@H](C)CO)C[C@@H](C)[C@H](CN(C)CC2CC2)OCCCC[C@@H](C)O3)cc1, C[C@@H]1CN([C@H](C)CO)C(=O)c2cc(C#CC3CC3)cnc2O[C@H]1CN(C)S(=O)(=O)c1cccc(F)c1, CC(CO)(CO)NS(=O)(=O)c1ccccc1, CC(C)[N+](C)(CCOC(=O)C1c2ccccc2Oc2ccccc21)C(C)C.[Br-], C[C@@H]1CN([C@H](C)CO)C(=O)c2cc(NC(=O)Cc3cn(C)c4ccccc34)ccc2O[C@H]1CN(C)Cc1ccc(Cl)c(Cl)c1
